Test results reported in the supplement of paper PMC4604168 (melanoma cell lines).
Some of the results follow. Single values are uncertain, as repeats are few or missing.

system: G361; experiment: cell count relative to DMSO control; melanoma cells; higher = more viable cells; conditions: library dose: low library concentration; 72 h
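Further: cell number obtained by counting DAPI-stained nuclei in high-throughput microscope images with image analysis software, screen run in 1,536-well plates.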

Compound | cell count
COc1ccc(C2=N[C@@H](c3ccc(Cl)cc3)[C@@H](c3ccc(Cl)cc3)N2C(=O)N2CCNC(=O)C2)c(OC(C)C)c1 [Nutlin-3] + CNC(=O)c1cc(Oc2ccc(NC(=O)Nc3ccc(Cl)c(C(F)(F)F)c3)cc2)ccn1 [sorafenib] (first compound 0.1 µM, partner dose 0.4 µM) | 105%
COc1ccc(C2=N[C@@H](c3ccc(Cl)cc3)[C@@H](c3ccc(Cl)cc3)N2C(=O)N2CCNC(=O)C2)c(OC(C)C)c1 [Nutlin-3] + COCC[n+]1c2c(n(Cc3cnccn3)c1C)C(=O)c1ccccc1C2=O [YM155] (first compound 0.1 µM, partner dose 0.0004 µM) | 79.8%
COc1ccc(C2=N[C@@H](c3ccc(Cl)cc3)[C@@H](c3ccc(Cl)cc3)N2C(=O)N2CCNC(=O)C2)c(OC(C)C)c1 [Nutlin-3] + Nc1nc(F)nc2c1ncn2[C@@H]1O[C@H](CO)[C@@H](O)[C@@H]1O [fludarabine] (first compound 0.1 µM, partner dose 0.2 µM) | 111%
COc1ccc(C2=N[C@@H](c3ccc(Cl)cc3)[C@@H](c3ccc(Cl)cc3)N2C(=O)N2CCNC(=O)C2)c(OC(C)C)c1 [Nutlin-3] + CC(C)C[C@H](NC(=O)[C@H](Cc1ccccc1)NC(=O)c1cnccn1)B(O)O [Bortezomib] (first compound 0.1 µM, partner dose 0.001 µM) | 25.4%
CC(C)C[C@H](NC(=O)[C@H](Cc1ccccc1)NC(=O)c1cnccn1)B(O)O [Bortezomib] + CNC(=O)c1cc(Oc2ccc(NC(=O)Nc3ccc(Cl)c(C(F)(F)F)c3)cc2)ccn1 [sorafenib] (first compound 0.001 µM, partner dose 0.4 µM) | 3.4%
